Measurements as given in the BET-seq Pho4 binding data (Le et al. 2018).
This is one part of the list. These are noisy estimates, calculated here from bound and input reads.

target: T1, Pho4 (S. cerevisiae) (UniProt P07270); test: relative binding free energy (BET-seq); higher = weaker binding; settings: reference: library average
T1 sequence: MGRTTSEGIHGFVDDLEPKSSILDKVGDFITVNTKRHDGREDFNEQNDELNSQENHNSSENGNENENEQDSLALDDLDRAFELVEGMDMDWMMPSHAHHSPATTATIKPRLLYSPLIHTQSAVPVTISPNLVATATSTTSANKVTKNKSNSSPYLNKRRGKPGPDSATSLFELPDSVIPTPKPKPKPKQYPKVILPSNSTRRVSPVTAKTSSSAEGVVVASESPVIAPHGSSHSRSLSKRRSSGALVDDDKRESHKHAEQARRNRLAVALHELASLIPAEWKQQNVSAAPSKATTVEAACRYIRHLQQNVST

Sequence	relative binding free energy
TATGTCACGTGGCAAG	-0.01 kcal/mol
AAGGTCACGTGGTCAG	0.05 kcal/mol
TGATACACGTGTTATA	0.01 kcal/mol
ATGAGCACGTGGTAAA	0 kcal/mol
ATTGCCACGTGTGTAG	-0.06 kcal/mol
ACTTTCACGTGTGGGG	0.29 kcal/mol
TTTATCACGTGGATTA	0.12 kcal/mol
AGATACACGTGCAGGT	0.2 kcal/mol
TCGGTCACGTGTGTTT	0.14 kcal/mol
TCAGACACGTGAGGGT	0.27 kcal/mol
AGGGCCACGTGTTTTA	-0.09 kcal/mol
CGGAACACGTGGGTGG	-0.15 kcal/mol
TGGAGCACGTGTTACG	-0.11 kcal/mol
GTTTTCACGTGTTTCG	0.21 kcal/mol
AGTATCACGTGAGATG	0.39 kcal/mol
GGAGTCACGTGATATG	0.41 kcal/mol
TATATCACGTGACGGG	0.24 kcal/mol
TTTGCCACGTGTTCTT	0.06 kcal/mol
TTGATCACGTGTGCTA	0 kcal/mol
TGGTGCACGTGATCGG	-0.08 kcal/mol
TTGGACACGTGGAGTA	-0.17 kcal/mol
AAGATCACGTGTGGGG	0.21 kcal/mol
CGGGGCACGTGTCCGG	-0.16 kcal/mol
GTAAACACGTGTTAGT	-0.05 kcal/mol
GAATTCACGTGGTTGG	0.32 kcal/mol
AGGCGCACGTGCGAGG	-0.17 kcal/mol

Sequence	relative binding free energy
TTAGTCACGTGAGGGT	0.29 kcal/mol
CTGATCACGTGTTTGG	0.06 kcal/mol
TGAGGCACGTGTGGCA	-0.08 kcal/mol
AATTTCACGTGATAGA	0.3 kcal/mol
TGTCGCACGTGTCGGT	0.01 kcal/mol
TGGCGCACGTGAGTTA	0.22 kcal/mol
TAGATCACGTGGGATT	0.21 kcal/mol
GTTTACACGTGGTAAC	0.23 kcal/mol
TATGCCACGTGTGTTT	-0.15 kcal/mol
GTATACACGTGGTAGG	-0.01 kcal/mol
TCGGGCACGTGTTTTA	-0.05 kcal/mol
TCATTCACGTGAGGGT	0.3 kcal/mol
GGGAGCACGTGGAGAA	0.03 kcal/mol
GGGGGCACGTGCTCAG	-0.2 kcal/mol
TGAATCACGTGAAGAA	0.51 kcal/mol
GTGGTCACGTGTGACG	0.33 kcal/mol
GTGGACACGTGTGCGA	0.04 kcal/mol
TTTTACACGTGCAGTG	0.03 kcal/mol
TTGGCCACGTGTAAGA	0.15 kcal/mol
TTGGGCACGTGTTAAC	0 kcal/mol
TTCAACACGTGATGTT	0.14 kcal/mol
GTTGGCACGTGATTGG	0.12 kcal/mol
TGCGTCACGTGTAGGT	-0.14 kcal/mol
GTTGGCACGTGCGCAG	-0.15 kcal/mol
GTGTACACGTGTCGGG	0.1 kcal/mol
TTTAACACGTGGGCAG	-0.11 kcal/mol

Sequence	relative binding free energy
CGTTGCACGTGCGGAG	0.06 kcal/mol
GGTGGCACGTGGTTCA	-0.15 kcal/mol
TCAGTCACGTGAGGAT	0.32 kcal/mol
GTTGCCACGTGGGCAG	-0.14 kcal/mol
GGGGTCACGTGCGGGA	0 kcal/mol
CGAAGCACGTGAGTTG	0.13 kcal/mol
GAATTCACGTGGGTCG	0.29 kcal/mol
AAGGCCACGTGTGGAT	0.02 kcal/mol
CGGAACACGTGGGGGT	-0.11 kcal/mol
TTGTTCACGTGATGTA	0.19 kcal/mol
TGTATCACGTGGCGCA	0 kcal/mol
GGTGCCACGTGGAGTA	-0.01 kcal/mol
CGTGACACGTGTAAGT	0.11 kcal/mol
GTAGTCACGTGTTAAA	0.25 kcal/mol
TGCAGCACGTGGCGGA	-0.17 kcal/mol
TTATGCACGTGCTTTA	-0.15 kcal/mol
AATTTCACGTGATTGA	0.3 kcal/mol
TGGTCCACGTGGGGTC	-0.16 kcal/mol
GGGGTCACGTGATCAG	0.16 kcal/mol
ATATCCACGTGTTATG	0.03 kcal/mol
ATGCACACGTGGGAGG	0.04 kcal/mol
CGTTGCACGTGGCGTA	0.03 kcal/mol
GGCGACACGTGGGCTG	-0.2 kcal/mol
AGGTTCACGTGGTAGC	0.15 kcal/mol
ATGGTCACGTGCACGT	0 kcal/mol
GAGGTCACGTGGGTTG	0.09 kcal/mol

Sequence	relative binding free energy
GCAGGCACGTGGGGGG	-0.18 kcal/mol
GTCGTCACGTGATGGG	0.24 kcal/mol
GTTTGCACGTGGATTC	0.06 kcal/mol
CAGTTCACGTGGAATT	0.43 kcal/mol
TGTTGCACGTGCTACG	-0.1 kcal/mol
TTTTTCACGTGCTGCA	0.24 kcal/mol
GTGGACACGTGGGCTT	-0.05 kcal/mol
TAGGGCACGTGGTCGA	-0.24 kcal/mol
GTCAGCACGTGGAGTG	-0.1 kcal/mol
TCGTGCACGTGAGTGG	0.07 kcal/mol
ATAGACACGTGGGGAG	-0.09 kcal/mol
TAGGCCACGTGACGGG	-0.09 kcal/mol
TAATGCACGTGTACTT	-0.06 kcal/mol
TATGCCACGTGGGGCA	-0.23 kcal/mol
AACAGCACGTGAGGTT	0.17 kcal/mol
GTGGTCACGTGGTCAT	0.07 kcal/mol
TATGCCACGTGATAGT	0.13 kcal/mol
AATAGCACGTGTGGCG	-0.05 kcal/mol
TGGTTCACGTGATAGA	0.21 kcal/mol
GTGATCACGTGTGCAG	0.1 kcal/mol
ATGGACACGTGTTGAA	0.06 kcal/mol
CTTAGCACGTGTGGAT	0.03 kcal/mol
GACGCCACGTGGTGGG	-0.18 kcal/mol
GAAAGCACGTGGATGG	-0.02 kcal/mol
TCTAGCACGTGGGTTA	-0.19 kcal/mol
TCGGTCACGTGGCAGG	-0.05 kcal/mol

Sequence	relative binding free energy
ATTTTCACGTGGGTAC	0.24 kcal/mol
TTCTACACGTGGTCGT	0.01 kcal/mol
GTGGGCACGTGTTGAG	-0.1 kcal/mol
CCGATCACGTGGTGGG	0.07 kcal/mol
GAGTGCACGTGTCCGG	0.01 kcal/mol
TTAGACACGTGGCTGG	-0.03 kcal/mol
TGAGTCACGTGAGTTT	0.36 kcal/mol
GGTAACACGTGGTCGT	0.13 kcal/mol
GCTAGCACGTGGCGGG	-0.07 kcal/mol
TTGTACACGTGATAAT	0.41 kcal/mol
TGTGTCACGTGGCCGC	0.01 kcal/mol
TAGGTCACGTGGGTGC	-0.01 kcal/mol
GGACACACGTGTTGTG	-0.07 kcal/mol
TATGGCACGTGAATCT	0.18 kcal/mol
TTAATCACGTGTGAAA	0.19 kcal/mol
CTAGGCACGTGTTTTG	-0.05 kcal/mol
GCGGGCACGTGTGGGT	0.04 kcal/mol
TCTGTCACGTGATGGG	0.27 kcal/mol
CAATTCACGTGTAAGT	0.42 kcal/mol
ATCGGCACGTGTGCGT	-0.09 kcal/mol
TTAGTCACGTGTCTGA	0.01 kcal/mol
GTTGTCACGTGATCGG	0.27 kcal/mol
GTTGTCACGTGCCTGT	0 kcal/mol
GAGACCACGTGGGAGT	0.13 kcal/mol
AGGGACACGTGGGTGC	-0.2 kcal/mol
TTACGCACGTGTTAGT	-0.17 kcal/mol

Sequence	relative binding free energy
TCGAGCACGTGGGAGT	-0.27 kcal/mol
TCCGGCACGTGTGTGA	0.07 kcal/mol
CGTTACACGTGTGAAG	0.24 kcal/mol
TGTGCCACGTGGTGTC	-0.21 kcal/mol
TTTTTCACGTGTTTGA	0.26 kcal/mol
CGTTTCACGTGTTCTG	0.17 kcal/mol
AGGCGCACGTGGTTAG	-0.17 kcal/mol
AAGGCCACGTGTGGGC	-0.06 kcal/mol
CATATCACGTGTTGTG	0.13 kcal/mol
GATTTCACGTGTAGGT	0.42 kcal/mol
TGGGTCACGTGGACCG	-0.08 kcal/mol
CTAGTCACGTGGCGTT	-0.01 kcal/mol
GTGCCCACGTGGGTGT	-0.25 kcal/mol
ATGGTCACGTGATCAT	0.16 kcal/mol
GATGTCACGTGTTTCA	0.22 kcal/mol
TAGAGCACGTGGAAAG	0.07 kcal/mol
AGCGTCACGTGGTATT	-0.11 kcal/mol
AGAGGCACGTGTTGTT	-0.08 kcal/mol
TGTGCCACGTGGGTTC	-0.22 kcal/mol
ATGGACACGTGTTTGC	0.08 kcal/mol
AAATACACGTGTTGGT	0.08 kcal/mol
AATTGCACGTGGAGGG	0 kcal/mol
AGTTGCACGTGCTTGA	0 kcal/mol
GGTATCACGTGTAATT	0.13 kcal/mol
TGCGGCACGTGTAATA	0.07 kcal/mol
GGGGACACGTGGAATT	0.21 kcal/mol

Sequence	relative binding free energy
GAGGTCACGTGTTGTA	0.22 kcal/mol
GTCTTCACGTGGGGGT	0.2 kcal/mol
GTCTTCACGTGGTGGA	0.42 kcal/mol
GTCATCACGTGGGGCT	0.1 kcal/mol
TTCTGCACGTGTTTCT	0.13 kcal/mol
GCTGGCACGTGGAGCG	-0.07 kcal/mol
ACATACACGTGGGAGG	0.07 kcal/mol
CCGGGCACGTGTGTGT	-0.13 kcal/mol
TTTTACACGTGACTAT	0.3 kcal/mol
TCGTTCACGTGTATAT	0.23 kcal/mol
AGATTCACGTGTTTTA	0.24 kcal/mol
TTTATCACGTGCTGGA	0.04 kcal/mol
GAGTCCACGTGGGGGA	0 kcal/mol
TGTGGCACGTGAGTAC	-0.01 kcal/mol
GCGATCACGTGTTGTA	0.24 kcal/mol
TACTTCACGTGGGTTA	0.15 kcal/mol
ATTTCCACGTGTATGT	0.06 kcal/mol
GAATTCACGTGATAGT	0.36 kcal/mol
AGGTGCACGTGGTGGC	-0.1 kcal/mol
ATTAGCACGTGATGTC	-0.01 kcal/mol
GGTGTCACGTGTAGTG	0.17 kcal/mol
CGTGTCACGTGATTGG	0.17 kcal/mol
TTTGACACGTGGGGCG	-0.16 kcal/mol
TTGTACACGTGGGAGC	-0.28 kcal/mol
TCAAGCACGTGTGGTT	-0.07 kcal/mol
AGGGGCACGTGCTTAG	-0.14 kcal/mol

Sequence	relative binding free energy
TTTTTCACGTGATCTT	0.17 kcal/mol
GGCGGCACGTGGCGGG	-0.1 kcal/mol
GGGGGCACGTGTTAGC	-0.2 kcal/mol
GGACGCACGTGGTGCT	-0.06 kcal/mol
AGGATCACGTGTAGAG	0.04 kcal/mol
GCTATCACGTGGTTGT	-0.02 kcal/mol
GGGATCACGTGTGGTC	0.24 kcal/mol
TTTTGCACGTGTGTGG	0.11 kcal/mol
TAATACACGTGTATTG	-0.11 kcal/mol
TATAGCACGTGCGTAT	-0.13 kcal/mol
TTAGGCACGTGGGGAA	-0.2 kcal/mol
CGGGTCACGTGTATAT	0.16 kcal/mol
CATGTCACGTGGTAGT	-0.01 kcal/mol
GGTGTCACGTGTATAG	0.17 kcal/mol
CGTGGCACGTGTGTCG	-0.09 kcal/mol
GACTACACGTGGTGTG	0.11 kcal/mol
AGGTGCACGTGATTTG	0.04 kcal/mol
ATGAGCACGTGTAGGG	-0.16 kcal/mol
GGAGTCACGTGTGCGG	0.09 kcal/mol
GGATGCACGTGTAAGT	0.1 kcal/mol
TATCTCACGTGGAGAG	0.28 kcal/mol
GTAGCCACGTGGGTCG	-0.16 kcal/mol
ATAAACACGTGTGGGT	-0.01 kcal/mol
AGAAACACGTGGGTTG	-0.04 kcal/mol
ATGGTCACGTGTCTTT	0.05 kcal/mol
TTGTTCACGTGTTGTC	0.31 kcal/mol

Sequence	relative binding free energy
ACCTACACGTGGGGGG	0.05 kcal/mol
TTGTTCACGTGATTTG	0.34 kcal/mol
ACCGTCACGTGTTTTT	0.27 kcal/mol
GTATACACGTGTTATA	0.04 kcal/mol
AGTTGCACGTGACTGT	0.05 kcal/mol
AAGTGCACGTGGCAGT	-0.09 kcal/mol
CTGGTCACGTGAATTG	0.34 kcal/mol
GCTCGCACGTGTGTGT	-0.1 kcal/mol
GTTATCACGTGGGCAG	0.08 kcal/mol
CGGTACACGTGATGTG	0.17 kcal/mol
TTGCGCACGTGGAGAG	-0.06 kcal/mol
GTCATCACGTGATTTG	0.35 kcal/mol
CTCTGCACGTGTGTGT	0.01 kcal/mol
GGGTTCACGTGTGTAT	0.34 kcal/mol
GTTGTCACGTGCGTTT	0.18 kcal/mol
CCGGGCACGTGGCCGG	-0.17 kcal/mol
GTATGCACGTGGCGAG	-0.1 kcal/mol
GTTGTCACGTGAAGGT	0.31 kcal/mol
ATCGGCACGTGGTGGT	-0.15 kcal/mol
TTGAACACGTGTGTGA	0.08 kcal/mol
CGTAGCACGTGTGAGT	0.01 kcal/mol
AAAAGCACGTGGATGT	-0.11 kcal/mol
